Assay [1] deals with T1, TFII-I fragment (residues 350–667) containing R2-R4 (human, UniProt P78347 350-667).
T1 construct: source: bacteria, GST fusion, purified (glutathione-Sepharose 4B, PreScission, anion exchange, size exclusion)
Description: SEC; purified recombinant proteins mixed (1:1:1 molar ratios for Figure 1E) and fractionated on Superdex 200 10/300 GL; fractions on SDS-PAGE, Coomassie. The following applies: both partners purified.

A further assay addresses T2, TFII-I^330–667 fragment (human, UniProt P78347 330-667).
T2 construct: also called monomeric TFII-I fragment; source: bacteria, GST fusion, purified (glutathione-Sepharose 4B, PreScission, anion exchange, size exclusion)
Described as above. The conditions noted are these: both partners purified.

B1: His6-Rev7 R124A (natural protein)
chain: not shown
notes: human Rev7 with R124A (disrupts Rev7 dimerization); The Rev7 chain of m12, written alone for the pairs that touch inside the reconstituted complexes; source: prepared as previously described
For B1, the binding result (in assay [1]; in the assay with TFII-I^330–667 fragment) was “binds” in each case.

B2: Rev7 R124A–Rev3L ([…]) complex (complex)
chain 1: [letters of about 200 residues omitted]
chain 2: MLTPTPDSSPRSTSSPSQSKNGSFTPRTANILKPLMSPPSREEIMATLLDHD
notes: human Rev7 with R124A (disrupts Rev7 dimerization); also called Rev7–Rev3L; source: recombinant, purified; prepared as previously described; copies: 1 + 1
As to B2, in the assay with TFII-I^330–667 fragment, the binding result is “binds”.

The values are drawn from PMC4055408, “The Transcription Factor TFII-I Promotes DNA Translesion Synthesis and Genomic Stability” (PLoS Genetics, 2014).
